# Over roughly 33,000 sequences, “E-score (-0.5 to 0.5)” has its median near -0.053; the highest 2% begin near 0.37. The list shows a part of the results.
# Target: Hap1 (UniProt P0CE41)
# Assay: PBM E-score (8-mer binding enrichment) (E-score (-0.5 to 0.5)); higher = stronger / more preferred TF binding; most listed sequences are background and not binding sites
# Settings: protein concentration: 200 nM; construct: GST-DNA-binding domain
# Summary of the method: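 Bound GST-tagged yeast transcription factors, applied at about 100-200 nM to double-stranded universal all-10-mer Agilent arrays, were detected with fluorescent anti-GST. Scans were normalised with masliner. A modified Wilcoxon-Mann-Whitney statistic, the E-score, was assigned to each ungapped eight-base word pooled with its reverse complement by the Universal PBM Analysis Suite.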
# Chain of UniProt P0CE41 (P0CE41 whole entry): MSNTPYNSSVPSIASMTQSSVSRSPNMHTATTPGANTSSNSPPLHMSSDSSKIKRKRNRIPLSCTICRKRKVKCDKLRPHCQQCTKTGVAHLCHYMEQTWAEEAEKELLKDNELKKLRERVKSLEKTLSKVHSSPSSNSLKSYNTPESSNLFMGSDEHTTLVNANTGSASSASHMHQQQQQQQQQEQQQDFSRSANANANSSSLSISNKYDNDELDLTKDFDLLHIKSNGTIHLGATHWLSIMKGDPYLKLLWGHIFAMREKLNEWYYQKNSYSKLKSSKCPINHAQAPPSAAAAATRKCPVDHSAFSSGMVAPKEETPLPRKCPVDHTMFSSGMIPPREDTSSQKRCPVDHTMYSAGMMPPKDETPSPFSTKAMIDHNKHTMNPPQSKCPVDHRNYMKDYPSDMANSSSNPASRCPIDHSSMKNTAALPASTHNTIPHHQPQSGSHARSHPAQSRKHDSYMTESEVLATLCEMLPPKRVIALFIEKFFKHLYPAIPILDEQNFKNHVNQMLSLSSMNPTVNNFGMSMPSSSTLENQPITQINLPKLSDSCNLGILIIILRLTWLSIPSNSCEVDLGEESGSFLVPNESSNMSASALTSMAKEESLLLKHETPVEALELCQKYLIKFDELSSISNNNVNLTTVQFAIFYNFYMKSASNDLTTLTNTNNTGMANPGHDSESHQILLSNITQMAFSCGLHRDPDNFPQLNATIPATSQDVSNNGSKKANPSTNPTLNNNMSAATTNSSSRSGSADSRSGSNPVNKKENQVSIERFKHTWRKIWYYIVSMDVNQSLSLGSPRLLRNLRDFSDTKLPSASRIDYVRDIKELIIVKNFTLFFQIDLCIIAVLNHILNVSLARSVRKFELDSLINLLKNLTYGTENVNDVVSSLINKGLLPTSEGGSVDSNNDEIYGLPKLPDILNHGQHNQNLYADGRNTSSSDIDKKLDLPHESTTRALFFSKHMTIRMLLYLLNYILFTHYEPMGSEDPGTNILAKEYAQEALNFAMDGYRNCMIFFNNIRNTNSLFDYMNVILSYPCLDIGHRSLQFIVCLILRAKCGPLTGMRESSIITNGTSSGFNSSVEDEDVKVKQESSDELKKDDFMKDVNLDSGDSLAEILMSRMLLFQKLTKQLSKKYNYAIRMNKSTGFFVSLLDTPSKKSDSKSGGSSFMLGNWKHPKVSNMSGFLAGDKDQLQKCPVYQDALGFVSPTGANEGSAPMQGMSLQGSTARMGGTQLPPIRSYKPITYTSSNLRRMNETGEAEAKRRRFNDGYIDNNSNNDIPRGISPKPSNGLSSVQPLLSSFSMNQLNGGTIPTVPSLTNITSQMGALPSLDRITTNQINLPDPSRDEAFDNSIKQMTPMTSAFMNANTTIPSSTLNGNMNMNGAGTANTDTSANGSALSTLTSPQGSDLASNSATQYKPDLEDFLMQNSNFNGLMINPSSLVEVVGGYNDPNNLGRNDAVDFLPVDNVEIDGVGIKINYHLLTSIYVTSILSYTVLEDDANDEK
row,Sequence,PBM E-score
1,ACCAACCA,-0.0133
2,CAGGGACC,-0.23
3,CGTCGTTC,0.119
4,CAGGTAAA,-0.0534
5,CACACCGA,0.191
6,GGTTGACA,-0.183
7,ACATAACT,0.0696
8,AGTTTGGG,-0.0621
9,AGCGGATC,0.278
10,AATCAGTG,-0.0747
11,AATGATGC,-0.0623
12,AGCAAAAC,-0.123
13,CCGTTAAG,0.275
14,GATCAGCC,-0.11
15,TGCAATAA,-0.0651
16,CGGATTGA,0.252
17,AACGTGAC,-0.109
18,CGGTAGAA,0.127
19,ATTGACGG,0.187
20,ACCCGCTA,0.209
21,AGAAGTAA,-0.0663
22,ATTCTGTA,-0.143
23,CGACACCC,0.0398
24,CGCATCTA,0.165
25,CATGTCCC,-0.054

row,Sequence,PBM E-score
1,AAATTATG,-0.0384
2,AAGTGGTC,0.0343
3,CTGCCATC,-0.0511
4,GAGGTACC,0.0324
5,CAGTTTAA,-0.0695
6,ACCTGGGA,-0.229
7,CCGCAGTA,-0.0533
8,GTAAGCAA,-0.00551
9,ACATTAGT,-0.105
10,TACGAGGA,-0.0483
11,AATACTTA,0.0213
12,CTTTTGGC,-0.0793
13,AATGCAAC,-0.176
14,TAATTCGA,-0.237
15,ATACTTAA,0.077
16,CTGACATC,0.0186
17,ATTTCAGC,-0.108
18,ATGCTTTA,-0.262
19,TCCTGCGA,0.0234
20,GGCGCGCA,0.142
21,CGGAGGTA,0.443
22,AGAGGTCG,0.0391
23,AGCTTTTC,0.057
24,CTTGTAAC,-0.0628
25,AGGTTACG,-0.0478

row,Sequence,PBM E-score
1,CTCGAGTA,-0.0996
2,CTATAAGA,-0.309
3,GCCCTTAC,-0.0266
4,ACCACCAG,-0.188
5,CAGGGGCC,-0.171
6,ACTCGAGA,-0.126
7,GCGGGCAC,0.198
8,CTCCTCAG,-0.24
9,TCCGTCGA,0.228
10,GTCATCGA,-0.19
11,TCGAAACA,-0.102
12,CTTCCAGC,-0.177
13,CCACAATC,0.0208
14,ATCATATA,-0.191
15,CTCCTATA,-0.327
16,CGTGCCTC,0.0396
17,GAACTGAA,-0.0389
18,TAAGGACA,-0.119
19,GCACTTAC,0.0278
20,AGTCCGGC,0.389
21,ACATAGAG,-0.254
22,ACGTCTGA,-0.00548
23,CAGGAAGA,-0.112
24,ACAATGCT,-0.227
25,CTGACACC,0.0376

row,Sequence,PBM E-score
1,ACGGACCA,0.344
2,TGGATTAA,-0.166
3,CTCCCGTA,-0.0597
4,AGCCGAAA,0.329
5,CGCTGACA,0.0128
6,GGCTTGCA,-0.00494
7,AATTTACC,0.0607
8,GTGCTAAC,0.161
9,CGACCGCA,0.192
10,AAGATGAT,-0.157
11,AATGACTA,-0.25
12,ATGTGGGG,-0.118
13,AGCTGTAG,-0.11
14,ACATTGGT,-0.144
15,GCCCCCAA,-0.422
16,GGTAGAAC,-0.243
17,ACTATAAG,-0.211
18,GAGGTGGC,-0.137
19,CAAAGAGG,-0.142
20,GATTCATA,-0.0307
21,AATCGACT,-0.185
22,CAATAGCC,-0.168
23,CTAGGAGC,-0.0766
24,CCTCGCTC,0.0166
25,TGGTTCAA,-0.107

row,Sequence,PBM E-score
1,ACGTGACT,-0.183
2,CCTAGCAA,-0.279
3,GACACGAC,-0.16
4,CTAAGGCA,-0.122
5,ACACGCGC,0.037
6,CGTCCCAC,0.0644
7,AATCGTAG,-0.15
8,CTCGAATA,-0.0719
9,GAGTTGCA,-0.0678
10,CCGCACAA,0.031
11,AAAGAATT,-0.0164
12,ATGCACCG,0.238
13,CACAGGTG,-0.245
14,CTGCCCAA,-0.0313
15,GTTGACAA,-0.0513
16,ATACGTGC,0.0178
17,AACTACCC,-0.044
18,AAGGTAGA,-0.187
19,AGATTTAA,0.0293
20,GAAAGAAA,0.00895
21,GCTACTGA,-0.0813
22,CCTGCAAA,-0.195
23,CAGTGACC,-0.0846
24,ACTCCCGA,0.2
25,AACGGTAA,0.186

row,Sequence,PBM E-score
1,GTAGGGTA,-0.0927
2,GTAAGCAC,-0.205
3,TACAAGAA,-0.0692
4,CTAGTCAC,-0.0372
5,CCGGGCTA,0.347
6,CAGGGTAG,-0.0609
7,AGTCTACG,-0.252
8,GGTCCACC,0.0592
9,AGCAACAC,-0.0467
10,AGCTATCA,-0.16
11,GTCCAGAC,-0.215
12,GTCGTAAA,0.0319
13,CCAACACC,-0.127
14,AAAGTGTG,-0.327
15,AAAACTCC,0.22
16,ATTGGGAG,-0.127
17,ACCAAAGA,-0.0325
18,TAGCAATA,0.0382
19,CACTACTC,0.0257
20,AGAACAAT,-0.146
21,CGTATAGC,0.157
22,AAATTCGA,-0.109
23,GGCATTGA,0.115
24,AGATCGAC,-0.0629
25,TCCACACA,-0.147

row,Sequence,PBM E-score
1,CTAAAAAG,-0.101
2,CAGTGTCG,-0.0888
3,GCCAAGGC,-0.282
4,AATATTTA,-0.113
5,ATGCACTG,-0.261
6,ACACGGTC,-0.00889
7,AGTTACAG,-0.131
8,CACGATAG,-0.138
9,CCAAATGA,0.00146
10,GCAGTCAA,-0.217
11,AGCTGGGC,-0.00364
12,AGCGGAAT,0.168
13,CGAACGCC,0.116
14,GATCATTA,0.144
15,ACTCTCAC,-0.219
16,AGATACTG,-0.126
17,CATAATAA,-0.0392
18,AATTGCGT,0.141
19,CACACAGC,-0.159
20,CCTGAATA,-0.0801
21,AATATTGC,0.0342
22,AATGACGA,-0.158

# Reference: the supplement of paper PMC3334620
